Experimental data: the supplement of paper PMC10338343
± gives the standard deviation. The entries are a selection whose mix differs from that of the whole data set.

Test system: MIWI (PIWIL1) piRISC loaded with L1MC piRNA (30 nt)
Assay: pre-steady-state target cleavage rate (min^-1); MIWI and MILI are mouse PIWI proteins and EfPiwi is from a freshwater sponge; tags in brackets are library labels; higher = faster piRNA-guided slicing of the target
Conditions: guide: L1MC piRNA 5'p-UAACUAAAUACUAUGCAAGCUGUAGGUCCU
Outline: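 With or without 500 nM GTSF1 partner protein, 1 nM active affinity-purified piRISC carrying one synthetic guide was mixed with 0.1 nM transcribed, DNA-blocked target RNA library in HEPES–potassium acetate buffer at 33 °C for 0–8 or 0–960 min. Uncleaved targets were sequenced and normalised to depth and to weakly complementary targets, three trials were pooled, and k3 was capped at 0.0001 min^-1. The pre-steady-state cleavage rate came from a burst-and-steady-state fit.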

[1] = auxiliary factor: 500 nM mouse GTSF1
[2] = auxiliary factor: none (no GTSF1)

Sequence | pre-steady-state target cleavage rate [1] | pre-steady-state target cleavage rate [2]
UCGACCCUACAGCUUGCAUAGUAUUUAGUUA | 1.33 ± 0.061 | 0.0734 ± 0.012
UCGACCUACAGCAUGCAUAGUAUUUAGUUA | 1.48 ± 0.049 | 0.0548 ± 0.013
UCCACCUUCACCUUGCAUAGUAUUUAGUUA | 0.741 ± 0.057 | 0.049 ± 0.0088
UCGACCUACAGCUAGCAUAGUAUAUAGUUA | 0.804 ± 0.055 | 0.00897 ± 0.002
UGGACCUACACCUUGCAUAGUAUUUACUUA | 0.164 ± 0.023 | 0.0208 ± 0.0034
UCCACCUACAGCUUGCAUAGUAUUUAGCUA | 0.247 ± 0.067 | 0.00593 ± 0.0029
UCCUGGUACAGCUUGCAUAGAUUUUAGUUA | 0.0613 ± 0.012 | 0.00539 ± 0.0028
UGGACCUACAGCUUGCAUAGGAUUUAGUUA | 0.0322 ± 0.005 | 0.00891 ± 0.0028
UCCACCUUCAGCUUGCAUAGUAUUUUGUUA | 0.615 ± 0.059 | 0.021 ± 0.0032
UCCUGCUACACCUUGCAUAGUAUUUAGUUA | 0.706 ± 0.057 | 0.0371 ± 0.0073
UCCACCUUCAGCUAGCAUAGUAUUUAGUUA | 1.03 ± 0.028 | 0.0174 ± 0.004
AGGACCUACAGCUAGCAUAGAAUUUAGUUA | 0.423 ± 0.03 | 0.0103 ± 0.0035
UCCUGGUACAGCUUGCAUAGUAUCUUAGUUA | 0.427 ± 0.051 | 0.0115 ± 0.0042
UCCUGCUACUGCUUGCAUAGUAUUUAGUUA | 0.559 ± 0.047 | 0.04 ± 0.006
UCCUGGAUCUGCUUGCAUAGUAUUUUGUUA | 0.29 ± 0.024 | 0.0178 ± 0.0041
UCCUGGAACAGCUCGCAUAGUAUUUAGUUA | 1.08 ± 0.035 | 0.0615 ± 0.015
AGGACCUUCAGCUUGCAUAGUAUUUAGAAA | 0.522 ± 0.056 | 0.0236 ± 0.0078
UCCUCCUACAGCUUGCAUAGUUAAUAGUUA | 0.116 ± 0.019 | 0.00705 ± 0.0018
UCCACCUACAGUUUGCAUAGUAUUUAGUUA | 0.892 ± 0.072 | 0.0474 ± 0.0076
UGGUCCUACAGCUUGCAUAGUUUUUAGUUA | 0.35 ± 0.02 | 0.0428 ± 0.0092
UCCUGGAUCAACUUGCAUAGUAUUUAGUUA | 1.01 ± 0.051 | 0.0248 ± 0.0054
UCCUGCUACAGCAUGCAUAGUUUUUAGUUA | 0.512 ± 0.043 | 0.0156 ± 0.0037
UCCACCUACAGCUUGCAAUGUAUUUAGUUA | 0.552 ± 0.034 | 0.00492 ± 0.0019
UCGACGUACAGCUUGCAUAGUAUUUAGAUA | 0.394 ± 0.027 | 0.0398 ± 0.0071
UCCUCCUACAGCUUGCAUAGUAAUUAGAUA | 0.297 ± 0.047 | 0.00556 ± 0.0028

Sequence | pre-steady-state target cleavage rate [1] | pre-steady-state target cleavage rate [2]
UCCUGGUACAGCUUGCAUAGUAUUUAGUUC [g2:g24:cont:t1C] | 0.873 ± 0.047 | 0.0637 ± 0.014
UCCUGGAUGAGCUUUGCAUAGUAUUUAGUUA | 0.655 ± 0.043 | 0.0151 ± 0.0047
UCCACCAUCAGCUUGCAUAGUAUUUACAAA | 0.311 ± 0.038 | 0.00312 ± 0.0029
UCCUCCUACAGCUUGCAUAGAAUUUACUUA | 0.281 ± 0.043 | 0.00732 ± 0.0027
UCCUGGAUCAGCUUGCAUAGUAUUAAGUAA | 0.449 ± 0.053 | 0.0105 ± 0.0037
AGGACCUACAGCUUCCAUUGUAUUUAGUUA | 0.247 ± 0.022 | 0.00282 ± 0.0018
AGGACCUACAGUCUUGCAUAGUAUUUAGUUA | 1.16 ± 0.091 | 0.0691 ± 0.014
AGGACCUACAGCUUGCAUAGUUUUUAGUAA | 0.292 ± 0.028 | 0.0226 ± 0.0061
UCCUCCUACAGCUUGCUUAGUUUUUAGUUA | 0.19 ± 0.017 | 0.011 ± 0.0019
UCCUGGAUGUCGUUGCAUAGUAUUUCGUUA | 0.00995 ± 0.004 | 0.00392 ± 0.0028
AGGACCUACAGCUUGCAUAGUAUUUAGUGA | 1.01 ± 0.085 | 0.0934 ± 0.018
UCCUGCUAGAGCUUGCAUAGUUUUUAGUUA | 0.184 ± 0.022 | 0.0151 ± 0.0045
UCCUGGAUGACCUUGCAUAGUUUUUAGUUA | 0.0236 ± 0.0076 | 0.00589 ± 0.0016
UCCUGGAUCAGCUUACAUAGUAUUUAGUUA | 1.22 ± 0.059 | 0.0236 ± 0.0066
UCCUGGAACAGCUUGCAUACUAUAUAGUUA | 0.125 ± 0.017 | 0.0106 ± 0.004
UCCUGGAUGUGCUUGCAAAGUAUUUAGUAA | 0.0608 ± 0.0086 | 0.0105 ± 0.0037
UCGAGGAACAGCUUGCAUAGUAUUUUCAAA | 0.357 ± 0.051 | 0.00332 ± 0.0024
UCCUGGAUGAGCUUGCAUAGUAUUAAGUAA | 0.197 ± 0.036 | 0.0178 ± 0.0055
UCCACCUACAGCUUGCAUAGUAGUUAGUUA | 0.383 ± 0.042 | 0.0181 ± 0.0033
AGGACCUACAGCUAGCAUAGUAUUUAGAUA | 0.593 ± 0.057 | 0.015 ± 0.0045
UCCUGCAACAGCUUGCAUAGUAUUUACUUA | 0.353 ± 0.032 | 0.0202 ± 0.0037
UCCUCCGACAGCUUGCAUAGUAUUUAGUUA | 0.911 ± 0.03 | 0.0525 ± 0.0085
UCCUGGAUCAGCUUGCAUAGUAUCUUAGUUA | 0.735 ± 0.032 | 0.01 ± 0.0035
UCCUGGAACAGCUUGCAUUGUAUUUACUUA | 0.367 ± 0.039 | 0.0192 ± 0.0055
UCCUCCUACUGCUAGCAUAGUAUUUAGUUA | 0.871 ± 0.033 | 0.0164 ± 0.0031

Sequence | pre-steady-state target cleavage rate [1] | pre-steady-state target cleavage rate [2]
UGGUCCUACAGCUUGCAUAGUAUUAAGUUA | 0.496 ± 0.036 | 0.0291 ± 0.0046
AGGACCUACAGCUUGGAUAGAAUUUAGUUA | 0.473 ± 0.054 | 0.0178 ± 0.0049
UCCUGGAACCAGCUUGCAUAGUAUUUAGUUA | 1.11 ± 0.073 | 0.0411 ± 0.008
UCGACCUACAGGUUGCAUAGUAUUAAGUUA | 0.671 ± 0.052 | 0.0126 ± 0.0024
UCCUGGAAAGCUUGCAUAGUAUUUAGUUA | 0.971 ± 0.052 | 0.059 ± 0.016
UCCACCUACAGCUUCAUAGUAUUUAGUUA | 0.736 ± 0.052 | 0.00758 ± 0.0015
UCCUGCUACAGCUUGCAAAGUAUUAAGUUA | 0.532 ± 0.042 | 0.00892 ± 0.0026
UCGACCUACAGCUUGCAUAGUAUUUAGGUUA | 0.439 ± 0.067 | 0.0192 ± 0.0042
UCCACCAACAGCUUGCAUAGUUUUUAGUUA | 0.367 ± 0.021 | 0.0293 ± 0.0067
UCGACGAUCAGCUUGCAUAGUAUUUUCAAA | 0.354 ± 0.032 | 0.00393 ± 0.0023
UGGACCUACAGGUUGCAUAGUUUUUAGUUA | 0.233 ± 0.017 | 0.0243 ± 0.0052
UCCUGCUACUGCUUGCAUAGAAUUUAGUUA | 0.383 ± 0.03 | 0.019 ± 0.0057
UCCUGGAUGUCGUUGCAUAGUAUUUAGUGA | 0.0258 ± 0.0089 | 0.00328 ± 0.0026
AGGACCUACAGCUUGCAAACUAUUUAGUUA | 0.332 ± 0.023 | 0.00837 ± 0.0028
UCGACCUACAGCUUCCUUAGUAUUUAGUUA | 0.418 ± 0.032 | 0.0023 ± 0.0015
UCCUCCUACAGCUUGCAUAGUUUUAAGUUA | 0.165 ± 0.019 | 0.00872 ± 0.0018
UCCUGGUACAGCUUGCUUUGUAUUUAGUUA | 0.119 ± 0.012 | 0.0105 ± 0.002
AGGACCUUCAGCUUGCAUAGUAAUUAGUUA | 0.921 ± 0.054 | 0.0391 ± 0.0084
UCGACCUACAGCUUGCAUAGAAUUUAGUUA | 0.526 ± 0.036 | 0.022 ± 0.0064
UCCUGGAUGUGCUUGCAUGGUAUUUAGUUA | 0.209 ± 0.02 | 0.0348 ± 0.0072
UCCUGGUUCAGCUUGCAUAGUAUUUUCAAA | 0.11 ± 0.025 | 0.00359 ± 0.0028
UCCUGCUUCAGCUUGCAUAGUAUAUAGUUA | 0.699 ± 0.047 | 0.0228 ± 0.006
UGGACCUACAGCUUGCAAAGUAUUUACAAA | 0.125 ± 0.015 | 0.00411 ± 0.0022
UCCUGCUACACCUUGCAUAGUAUUAAGUUA | 0.383 ± 0.066 | 0.0124 ± 0.0028
UCCUCCUACAGCUUGCAUAGUAGUUUAGUUA | 0.443 ± 0.021 | 0.00927 ± 0.0027

Sequence | pre-steady-state target cleavage rate [1] | pre-steady-state target cleavage rate [2]
UGGACGUACACCUUGCAUAGUAUUUAGUUA | 0.993 ± 0.036 | 0.0623 ± 0.0094
UCCACCUAGAGCUUGCAUAGUAAUUAGUUA | 0.907 ± 0.1 | 0.0206 ± 0.0041
UGGACCUACUCGUUGCAUAGUAUUUAGUUA | 0.6 ± 0.049 | 0.0163 ± 0.0039
UCCUGGUAGAGGUUGCAUAGUAUUUAGUUA | 0.24 ± 0.033 | 0.00375 ± 0.0022
UCCACCUACACCUUGCAUAGUAUUUAGAAA | 0.374 ± 0.066 | 0.00472 ± 0.0024
UCCUGCUACAGCUUGCAUAGUAUUUAGUGA | 0.388 ± 0.045 | 0.0222 ± 0.0053
UCCUCCUACAGAUUGCAUAGUAUUUAGUUA | 0.915 ± 0.052 | 0.0221 ± 0.0037
UCCUGGAUCAGCUUGCAUAGUAUUUAAGUUA | 0.912 ± 0.046 | 0.0267 ± 0.0066
UCCACCUACUGCUUGCAUAGUAUUUACAAA | 0.114 ± 0.017 | 0.00302 ± 0.0021
UCCUGGAUGAGCUAGCAUAGUUUUUAGUUA | 0.0762 ± 0.012 | 0.00858 ± 0.0029
UCCUGGAUCAGCUAGCAAAGUAUUUAGUUA | 0.509 ± 0.041 | 0.00595 ± 0.0026
UCCUGCUACAGCUUGCAUAGUAAUUAGUAA | 0.213 ± 0.029 | 0.00539 ± 0.0022
UCGACCUACAGGUUGCAUAGUAUAUAGUUA | 0.675 ± 0.048 | 0.0232 ± 0.0054
UCCUGGAUCCGCUUGCAUAGUAUUUAGUUA | 0.927 ± 0.053 | 0.031 ± 0.0075
UCCUGGUACAGCUUGCAUAGUAUUUAUGUUA | 0.323 ± 0.056 | 0.0226 ± 0.0064
UCCUGGUACAGCAAGCAUAGUAUUUAGUAA | 0.316 ± 0.039 | 0.0033 ± 0.0024
UCCUCCUACAGCUAGCAUAGUAUUAAGUUA | 0.603 ± 0.03 | 0.00394 ± 0.0022
UGGACCUACUCCUUGCAUAGUAUUUACAAA | 0.0914 ± 0.018 | 0.00535 ± 0.0019
UCGACCUACAGCUUGCAUAGAAUUUAGAUA | 0.314 ± 0.044 | 0.0119 ± 0.0039
UCCUGGAACACGUUGCAUAGUAUUUAGUAA | 0.241 ± 0.049 | 0.00341 ± 0.0027
UCCUCCGUACAGCUUGCAUAGUAUUUAGUUA | 1.02 ± 0.042 | 0.0539 ± 0.0094
UCCUGGAUCAGCUUGGUUAGUAUUUAGUUA | 0.49 ± 0.031 | 0.00737 ± 0.0031
UCGUACCUACAGCUUGCAUAGUAUUUAGUUA | 0.909 ± 0.034 | 0.0778 ± 0.016
UGGUCCUACAGCUUGCAUAGUAUUUUGUUA | 0.679 ± 0.03 | 0.0592 ± 0.011
UCCUGGAACUGCUUGCUUAGUAUUUAGUUA | 0.509 ± 0.026 | 0.0163 ± 0.0047
